The values that follow come from paper PMC12820563.

This is one part of the list. The list includes weakly bound sequences.

The target in this assay is T1, MBP-FoxP3dN (UniProt Q99JB6).
T1 sequence: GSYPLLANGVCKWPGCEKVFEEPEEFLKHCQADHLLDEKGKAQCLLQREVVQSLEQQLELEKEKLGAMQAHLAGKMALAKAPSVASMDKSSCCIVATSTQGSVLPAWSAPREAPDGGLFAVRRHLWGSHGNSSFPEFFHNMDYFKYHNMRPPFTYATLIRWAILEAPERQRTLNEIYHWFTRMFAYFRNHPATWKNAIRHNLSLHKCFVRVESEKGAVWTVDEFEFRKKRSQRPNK
As to the kind of experiment: PD-seq (MBP pull-down with sequencing). As to conditions: 20 mM Tris-HCl pH 7.5, 100 mM NaCl, 1.5 mM MgCl2, 0.4 uM protein, 0.1 uM dsDNA library, 30 min, room temperature, amylose pull-down; high values mean tight binding; double strand, one strand shown.
For “GATGATTGTTCTCCCAGCTGATGAATTTGCAGACTCGAGTAAACAAATTTTCCTAATCTTTCTGTTCAAGCGCCATCTAC”, the binding signal (RPM ratio (pull-down/input)) was determined as 0.432.

On to “GATGATTGTTCTCCCAGCTGATGAATTAGTTGGATCGAGTAAACAAATTTTCCTAATCTTTCTGTTCAAGCGCCATCTAC”, for which the binding signal (RPM ratio (pull-down/input)) amounted to 1.06.

For the sequence “GATGATTGTTCTCCCAGCTGATGAATTTTGTACATCGAGTAAACAAATTTTCCTAATCTTTCTGTTCAAGCGCCATCTAC”, the binding signal (RPM ratio (pull-down/input)) turned out to be 1.47.

As to “GATGATTGTTCTCCCAGCTGATGAATTTTTGGCATCGAGTAAACAAATTTTCCTAATCTTTCTGTTCAAGCGCCATCTAC”, the binding signal (RPM ratio (pull-down/input)) was found to be 0.785.

Consider “GATGATTGTTCTCCCAGCTGATGAATTCAAGCTCTCGAGTAAACAAATTTTCCTAATCTTTCTGTTCAAGCGCCATCTAC”, for which the binding signal (RPM ratio (pull-down/input)) came out at 0.513.

For the sequence “GATGATTGTTCTCCCAGCTGATGAATTTCATTGGTCGAGTAAACAAATTTTCCTAATCTTTCTGTTCAAGCGCCATCTAC”, the binding signal (RPM ratio (pull-down/input)) was 1.11.

For “GATGATTGTTCTCCCAGCTGATGAATTACTATGGTCGAGTAAACAAATTTTCCTAATCTTTCTGTTCAAGCGCCATCTAC”, the binding signal (RPM ratio (pull-down/input)) worked out at 0.379.

In the case of “GATGATTGTTCTCCCAGCTGATGAATTTGAGGCGTCGAGTAAACAAATTTTCCTAATCTTTCTGTTCAAGCGCCATCTAC”, the binding signal (RPM ratio (pull-down/input)) was determined as 0.796.

In the case of “GATGATTGTTCTCCCAGCTGATGAATTCAGTCATTCGAGTAAACAAATTTTCCTAATCTTTCTGTTCAAGCGCCATCTAC”, the binding signal (RPM ratio (pull-down/input)) came to 1.04.

For “GATGATTGTTCTCCCAGCTGATGAATTGCGGGGATCGAGTAAACAAATTTTCCTAATCTTTCTGTTCAAGCGCCATCTAC”, the binding signal (RPM ratio (pull-down/input)) amounted to 0.651.

Turning to “GATGATTGTTCTCCCAGCTGATGAATTTTGTTCTTCGAGTAAACAAATTTTCCTAATCTTTCTGTTCAAGCGCCATCTAC”, the binding signal (RPM ratio (pull-down/input)) was found to be 1.21.

As for “GATGATTGTTCTCCCAGCTGATGAATTTATAATCTCGAGTAAACAAATTTTCCTAATCTTTCTGTTCAAGCGCCATCTAC”, the binding signal (RPM ratio (pull-down/input)) was determined as 0.978.

As to “GATGATTGTTCTCCCAGCTGATGAATTGACGGGCTCGAGTAAACAAATTTTCCTAATCTTTCTGTTCAAGCGCCATCTAC”, the binding signal (RPM ratio (pull-down/input)) was determined as 0.29.

On to “GATGATTGTTCTCCCAGCTGATGAATTGCGACAGTCGAGTAAACAAATTTTCCTAATCTTTCTGTTCAAGCGCCATCTAC”, for which the binding signal (RPM ratio (pull-down/input)) amounted to 0.853.

Consider “GATGATTGTTCTCCCAGCTGATGAATTGGACTTATCGAGTAAACAAATTTTCCTAATCTTTCTGTTCAAGCGCCATCTAC”, for which the binding signal (RPM ratio (pull-down/input)) worked out at 0.59.

Regarding “GATGATTGTTCTCCCAGCTGATGAATTACCTCCTTCGAGTAAACAAATTTTCCTAATCTTTCTGTTCAAGCGCCATCTAC”, the binding signal (RPM ratio (pull-down/input)) was determined as 0.278.

Consider “GATGATTGTTCTCCCAGCTGATGAATTTCAGACGTCGAGTAAACAAATTTTCCTAATCTTTCTGTTCAAGCGCCATCTAC”, for which the binding signal (RPM ratio (pull-down/input)) turned out to be 0.249.

Regarding “GATGATTGTTCTCCCAGCTGATGAATTGGGCGTTTCGAGTAAACAAATTTTCCTAATCTTTCTGTTCAAGCGCCATCTAC”, the binding signal (RPM ratio (pull-down/input)) was 2.47.

As to “GATGATTGTTCTCCCAGCTGATGAATTGCAACCATCGAGTAAACAAATTTTCCTAATCTTTCTGTTCAAGCGCCATCTAC”, the binding signal (RPM ratio (pull-down/input)) stood at 4.48.

Consider “GATGATTGTTCTCCCAGCTGATGAATTCCGCCAATCGAGTAAACAAATTTTCCTAATCTTTCTGTTCAAGCGCCATCTAC”, for which the binding signal (RPM ratio (pull-down/input)) is 0.896.

“GATGATTGTTCTCCCAGCTGATGAATTCTTCTCCTCGAGTAAACAAATTTTCCTAATCTTTCTGTTCAAGCGCCATCTAC”: the binding signal (RPM ratio (pull-down/input)) was 0.188.

In the case of “GATGATTGTTCTCCCAGCTGATGAATTAACCCCTTCGAGTAAACAAATTTTCCTAATCTTTCTGTTCAAGCGCCATCTAC”, the binding signal (RPM ratio (pull-down/input)) came out at 0.281.

For the sequence “GATGATTGTTCTCCCAGCTGATGAATTCCGGAGGTCGAGTAAACAAATTTTCCTAATCTTTCTGTTCAAGCGCCATCTAC”, the binding signal (RPM ratio (pull-down/input)) was 0.21.

Take “GATGATTGTTCTCCCAGCTGATGAATTTCATCAGTCGAGTAAACAAATTTTCCTAATCTTTCTGTTCAAGCGCCATCTAC”: the binding signal (RPM ratio (pull-down/input)) came out at 0.309.

Take “GATGATTGTTCTCCCAGCTGATGAATTTTGCAGTTCGAGTAAACAAATTTTCCTAATCTTTCTGTTCAAGCGCCATCTAC”: the binding signal (RPM ratio (pull-down/input)) was found to be 2.37.

Turning to “GATGATTGTTCTCCCAGCTGATGAATTTCAACTCTCGAGTAAACAAATTTTCCTAATCTTTCTGTTCAAGCGCCATCTAC”, the binding signal (RPM ratio (pull-down/input)) came to 0.601.

As to “GATGATTGTTCTCCCAGCTGATGAATTAAACCCATCGAGTAAACAAATTTTCCTAATCTTTCTGTTCAAGCGCCATCTAC”, the binding signal (RPM ratio (pull-down/input)) was determined as 0.304.

As for “GATGATTGTTCTCCCAGCTGATGAATTCGGGCAATCGAGTAAACAAATTTTCCTAATCTTTCTGTTCAAGCGCCATCTAC”, the binding signal (RPM ratio (pull-down/input)) worked out at 1.73.

For the sequence “GATGATTGTTCTCCCAGCTGATGAATTTGTTAATTCGAGTAAACAAATTTTCCTAATCTTTCTGTTCAAGCGCCATCTAC”, the binding signal (RPM ratio (pull-down/input)) worked out at 4.08.

For the sequence “GATGATTGTTCTCCCAGCTGATGAATTCGACATCTCGAGTAAACAAATTTTCCTAATCTTTCTGTTCAAGCGCCATCTAC”, the binding signal (RPM ratio (pull-down/input)) worked out at 0.959.

Turning to “GATGATTGTTCTCCCAGCTGATGAATTGTGTCGCTCGAGTAAACAAATTTTCCTAATCTTTCTGTTCAAGCGCCATCTAC”, the binding signal (RPM ratio (pull-down/input)) was 1.47.

Take “GATGATTGTTCTCCCAGCTGATGAATTCTGGAGATCGAGTAAACAAATTTTCCTAATCTTTCTGTTCAAGCGCCATCTAC”: the binding signal (RPM ratio (pull-down/input)) came to 0.215.

For the sequence “GATGATTGTTCTCCCAGCTGATGAATTATGTCGATCGAGTAAACAAATTTTCCTAATCTTTCTGTTCAAGCGCCATCTAC”, the binding signal (RPM ratio (pull-down/input)) turned out to be 0.68.

“GATGATTGTTCTCCCAGCTGATGAATTTCTCCGCTCGAGTAAACAAATTTTCCTAATCTTTCTGTTCAAGCGCCATCTAC”: the binding signal (RPM ratio (pull-down/input)) amounted to 0.201.

Take “GATGATTGTTCTCCCAGCTGATGAATTTGTTCGTTCGAGTAAACAAATTTTCCTAATCTTTCTGTTCAAGCGCCATCTAC”: the binding signal (RPM ratio (pull-down/input)) is 4.06.

With “GATGATTGTTCTCCCAGCTGATGAATTCCACTTTTCGAGTAAACAAATTTTCCTAATCTTTCTGTTCAAGCGCCATCTAC”, the binding signal (RPM ratio (pull-down/input)) came to 0.379.

For “GATGATTGTTCTCCCAGCTGATGAATTGGATTAATCGAGTAAACAAATTTTCCTAATCTTTCTGTTCAAGCGCCATCTAC”, the binding signal (RPM ratio (pull-down/input)) came to 0.271.

Turning to “GATGATTGTTCTCCCAGCTGATGAATTCCAATCATCGAGTAAACAAATTTTCCTAATCTTTCTGTTCAAGCGCCATCTAC”, the binding signal (RPM ratio (pull-down/input)) came out at 0.611.

With “GATGATTGTTCTCCCAGCTGATGAATTGACAATGTCGAGTAAACAAATTTTCCTAATCTTTCTGTTCAAGCGCCATCTAC”, the binding signal (RPM ratio (pull-down/input)) is 0.506.

As to “GATGATTGTTCTCCCAGCTGATGAATTCATACTTTCGAGTAAACAAATTTTCCTAATCTTTCTGTTCAAGCGCCATCTAC”, the binding signal (RPM ratio (pull-down/input)) was found to be 0.388.
